Data from PMC4336329 (PLoS ONE, 2015).
Hit rate of the full screen: of about 310,000 compounds, about 14,000 (4.5%) showed an effect of 50% or more. The effect is printed as a negative number. This is one part of the list.

Target: human ether-à-go-go-related gene (hERG) potassium channel (human, UniProt Q12809)
Experiment: primary screen, population patch clamp on CHO cells stably expressing hERG
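Further: peak tail current of the secondary pulse compared with the same well before compound.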

Chain of human ether-à-go-go-related gene (hERG) potassium channel (Q12809 whole entry, looked up): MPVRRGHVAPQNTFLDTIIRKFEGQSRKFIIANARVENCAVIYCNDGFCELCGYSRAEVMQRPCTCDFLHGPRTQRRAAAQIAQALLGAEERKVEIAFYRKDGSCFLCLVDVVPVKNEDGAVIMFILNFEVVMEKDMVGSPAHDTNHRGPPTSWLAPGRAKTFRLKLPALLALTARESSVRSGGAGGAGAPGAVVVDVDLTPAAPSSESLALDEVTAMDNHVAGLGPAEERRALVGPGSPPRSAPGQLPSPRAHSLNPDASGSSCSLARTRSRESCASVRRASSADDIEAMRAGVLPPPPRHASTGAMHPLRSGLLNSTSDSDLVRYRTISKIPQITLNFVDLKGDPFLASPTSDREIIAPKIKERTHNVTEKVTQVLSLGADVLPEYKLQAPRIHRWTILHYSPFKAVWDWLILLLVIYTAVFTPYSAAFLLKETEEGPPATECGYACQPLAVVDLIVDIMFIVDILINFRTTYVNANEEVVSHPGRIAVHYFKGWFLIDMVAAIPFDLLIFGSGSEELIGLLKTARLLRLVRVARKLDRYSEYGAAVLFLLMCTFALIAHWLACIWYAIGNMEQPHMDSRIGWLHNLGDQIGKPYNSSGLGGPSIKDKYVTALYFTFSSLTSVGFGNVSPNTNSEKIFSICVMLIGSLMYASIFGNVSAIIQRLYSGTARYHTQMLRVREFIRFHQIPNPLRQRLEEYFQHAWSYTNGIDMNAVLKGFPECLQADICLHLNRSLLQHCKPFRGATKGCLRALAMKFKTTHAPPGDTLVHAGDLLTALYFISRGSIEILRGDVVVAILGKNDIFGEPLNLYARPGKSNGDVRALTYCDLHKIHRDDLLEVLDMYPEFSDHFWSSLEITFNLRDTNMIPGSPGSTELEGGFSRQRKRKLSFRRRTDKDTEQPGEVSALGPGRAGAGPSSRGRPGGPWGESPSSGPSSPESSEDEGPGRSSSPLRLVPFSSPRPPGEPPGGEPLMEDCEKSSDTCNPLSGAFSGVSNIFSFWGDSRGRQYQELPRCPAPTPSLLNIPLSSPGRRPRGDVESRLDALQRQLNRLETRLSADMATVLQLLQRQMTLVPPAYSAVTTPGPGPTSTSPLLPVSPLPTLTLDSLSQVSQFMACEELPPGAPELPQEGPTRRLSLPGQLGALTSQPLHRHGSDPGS

Row | Compound | hERG current change (%, negative = inhibition) at 10uM [%]
1 | O=C(COC(=O)c1cccc(O)c1)Nc1ccc(N2CCOCC2)cc1 | -3.36
2 | O=C(NCCN1CCN(S(=O)(=O)c2ccc(F)cc2)CC1)C(=O)NCc1ccccc1 | 0.451
3 | CC1Cc2ccccc2N1CC(=O)NC(=O)NCc1ccccc1 (centres unmarked) | -4.86
4 | COc1ccc(N2CCN(C3CCCN(C(=O)CN4CCCC4=O)C3)CC2)cc1 (centres unmarked) | 16.2
5 | CCc1ccccc1Nc1nc(N)nc(COC(=O)c2cccn2C)n1 | -21.5
6 | COc1ccc(C2=NN(c3nc(-c4ccc(CNC(C)=O)cc4)cs3)C(c3ccco3)C2)cc1 (centres unmarked) | 12.2
7 | Cc1nc(SCC(=O)N2CCc3ccccc3C2)c2c(C)c(C)sc2n1 | -13.1
8 | Cc1cc2c(=O)n(C)c(SCC(=O)Nc3cccc(F)c3)nc2s1 | 16.5
9 | CN1CCN(c2nc3c(c(=O)[nH]c(=O)n3C)n2Cc2cccc(Br)c2)CC1 | -53.5
10 | O=C(O)C1CCCCC1C(=O)Nc1nc(-c2ccc(Cl)s2)cs1 (centres unmarked) | 13.7
11 | COC(=O)c1cc([N+](=O)[O-])c(-n2ccnc2)c([N+](=O)[O-])c1 | 16
12 | O=C(COC(=O)CNC(=O)c1ccc([N+](=O)[O-])o1)Nc1ncc(C(F)(F)F)cc1Cl | -58.3
13 | Cc1cccc2cc(CN(Cc3ccco3)C(=O)Nc3cccc(C#N)c3)c(Cl)nc12 | 18.4
14 | O=C(Nc1ccc(F)c(F)c1)c1ccc2c(c1)OCO2 | -15.5
15 | CCOC(=O)CCCCCN1C(=O)c2cccc3cccc(c23)C1=O | 16.7
16 | COc1cccc(-c2nc(CS(=O)(=O)CC(=O)Nc3ccc(F)cc3F)c(C)o2)c1 | 17.7
17 | COc1ccc(C(=O)Nn2c(SCC(=O)NCC3CCCO3)nc3ccccc3c2=O)cc1 (centres unmarked) | 2.75
18 | FC(F)(F)c1nnc(-c2ccccc2)nc1N1CCOCC1 | -11.1
19 | CCn1c(=O)c(C(=O)NNS(=O)(=O)c2ccc(C)cc2)c(O)c2ccccc21 | -17.8
20 | Cc1nn(-c2ccccc2)c2c1C1(C(=O)Nc3ccccc31)N1C(=N2)Sc2ccccc21 (centres unmarked) | 0.952
21 | Cc1cc(NC(=O)CSc2ccc3nnc(CCNS(=O)(=O)c4ccccc4)n3n2)no1 | 15.6
22 | CCS(=O)(=O)NCc1csc(-c2ccccc2)n1 | 18
23 | CCOc1ccc(NC(=S)NC(=O)/C=C/c2ccc(C)cc2)c([N+](=O)[O-])c1 | -2.67
